Source: the supplement of paper PMC9046079
Counter-ions that a name gives are not always drawn. ± gives the standard deviation of the averaged measurements. This is one part of the list.

Assays:
[1] = system: murine small intestinal organoids (ENR+CD Paneth differentiation); assay: cellular ATP (CellTiter-Glo 3D) relative to plate median (log10 fold change); higher = more viable cells; settings: 6 d
[2] = system: murine small intestinal organoids (ENR+CD Paneth differentiation); assay: carbachol-stimulated secreted lysozyme activity relative to plate median (log10 fold change); higher = more Paneth cell lysozyme secretion; settings: 6 d, carbachol 10 µM
[3] = system: murine small intestinal organoids (ENR+CD Paneth differentiation); assay: basal (non-stimulated) secreted lysozyme activity relative to plate median (log10 fold change); higher = more Paneth cell lysozyme secretion; settings: 6 d
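Wherever basal (non-stimulated) secreted lysozyme activity relative to plate median is given: ISC-enriched organoid precursors grown as 2.5D pseudo-monolayer on Matrigel, compound given on day 0 and day 3, plate values LOESS-normalized before median fold change, three murine donors.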
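Wherever cellular ATP (CellTiter-Glo 3D) relative to plate median is given: 2.5D pseudo-monolayer culture of ISC-enriched organoids partly embedded atop Matrigel, compound added on day 0 and again on day 3, per-plate LOESS correction before median fold change.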

Compound | cellular ATP (log10) ([1]; 0.08 µM) | cellular ATP (log10) ([1]; 0.4 µM) | cellular ATP (log10) ([1]; 2 µM) | cellular ATP (log10) ([1]; 10 µM) | carbachol-stimulated secreted lysozyme activity (log10) ([2]; 0.08 µM) | carbachol-stimulated secreted lysozyme activity (log10) ([2]; 0.4 µM) | carbachol-stimulated secreted lysozyme activity (log10) ([2]; 2 µM) | carbachol-stimulated secreted lysozyme activity (log10) ([2]; 10 µM) | basal (log10) ([3]; 0.08 µM) | basal (log10) ([3]; 0.4 µM) | basal (log10) ([3]; 2 µM) | basal (log10) ([3]; 10 µM)
CCCCCCCCc1ccc(CCC(N)(CO)CO)cc1 [Fingolimod (FTY720) HCl] | -0.08 ± 0.2 | 0.103 ± 0.094 | -0.468 ± 0.63 | -1.3 ± 0.47 | 0.00885 ± 0.025 | 0.108 ± 0.2 | -0.0086 ± 0.051 | -0.431 ± 0.14 | -0.0541 ± 0.057 | 0.0707 ± 0.26 | 0.0214 ± 0.12 | -0.225 ± 0.11
CN[C@H]1CC[C@@H](c2ccc(Cl)c(Cl)c2)c2ccccc21 [Sertraline HCl] | 0.0319 ± 0.28 | -0.0203 ± 0.11 | 0.0156 ± 0.03 | -0.152 ± 0.3 | -0.148 ± 0.14 | -0.0274 ± 0.088 | 0.0512 ± 0.04 | 0.108 ± 0.11 | -0.0404 ± 0.088 | -0.0255 ± 0.07 | 0.0367 ± 0.079 | 0.0797 ± 0.14
OC(CC1c2ccccc2-c2cncn21)C1CCCCC1 (stereo unspecified) | -0.0981 ± 0.11 | -0.168 ± 0.13 | -0.126 ± 0.06 | -0.203 ± 0.095 | 0.0122 ± 0.05 | -0.101 ± 0.32 | 0.114 ± 0.29 | -0.0201 ± 0.019 | -0.0532 ± 0.023 | -0.115 ± 0.085 | -0.0619 ± 0.034 | -0.0156 ± 0.031
CCN(c1cc(-c2ccc(CN3CCOCC3)cc2)cc(C(=O)NCc2c(C)cc(C)[nH]c2=O)c1C)C1CCOCC1 | 0.045 ± 0.24 | 0.0747 ± 0.092 | -0.0681 ± 0.18 | 0.336 ± 0.65 | 0.0578 ± 0.1 | -0.0264 ± 0.075 | 0.0409 ± 0.054 | -0.166 ± 0.067 | 0.0124 ± 0.088 | -0.0233 ± 0.034 | 0.015 ± 0.099 | 0.0618 ± 0.31
CCCSc1nc(N[C@@H]2C[C@H]2c2ccc(F)c(F)c2)c2nnn([C@@H]3C[C@H](OCCO)[C@@H](O)[C@H]3O)c2n1 [Ticagrelor] | -0.0323 ± 0.39 | -0.0809 ± 0.34 | -0.346 ± 0.6 | -0.295 ± 0.55 | 0.105 ± 0.22 | 0.142 ± 0.092 | 0.116 ± 0.073 | 0.11 ± 0.17 | 0.0281 ± 0.13 | 0.0239 ± 0.15 | 0.0303 ± 0.15 | 0.0356 ± 0.17
O=c1cc(-c2cccc3c2Sc2ccccc2S3)oc(N2CCOCC2)c1 | 0.524 ± 0.15 | 0.477 ± 0.054 | 0.551 ± 0.19 | 0.541 ± 0.13 | 0.191 ± 0.069 | 0.225 ± 0.16 | 0.165 ± 0.0054 | 0.0492 ± 0.14 | 0.115 ± 0.011 | 0.103 ± 0.021 | 0.116 ± 0.04 | 0.0737 ± 0.088
O=C(Nc1cc(C(F)(F)F)cc(C(F)(F)F)c1)c1cc(Cl)ccc1O | -0.00695 ± 0.19 | 0.117 ± 0.29 | 0.0758 ± 0.062 | -0.48 ± 0.47 | -0.0221 ± 0.00055 | 0.0912 ± 0.15 | 0.116 ± 0.047 | -0.0761 ± 0.034 | 0.00404 ± 0.14 | 0.101 ± 0.17 | 0.0973 ± 0.1 | -0.0892 ± 0.061
C#Cc1cccc(Nc2ncnc3cc(OCCOC)c(OCCO)cc23)c1 | 0.106 ± 0.39 | -0.13 ± 0.5 | -1.26 ± 0.37 | -1.1 ± 0.35 | 0.111 ± 0.082 | -0.217 ± 0.075 | -0.454 ± 0.026 | -0.429 ± 0.0088 | 0.115 ± 0.14 | -0.224 ± 0.025 | -0.287 ± 0.074 | -0.325 ± 0.093
O=C(Nc1ccncc1)c1cc([N+](=O)[O-])ccc1Cl | -0.377 ± 0.93 | -0.0742 ± 0.21 | 0.0406 ± 0.065 | -0.365 ± 0.082 | -0.251 ± 0.23 | -0.0157 ± 0.044 | 0.0304 ± 0.015 | -0.183 ± 0.38 | -0.0876 ± 0.2 | 0.00508 ± 0.021 | 0.0421 ± 0.042 | -0.0715 ± 0.21
O=C1NC(=O)C(c2ccccc2[N+](=O)[O-])=C1Nc1ccc(O)c(Cl)c1 | 0.222 ± 0.25 | 0.06 ± 0.2 | 0.078 ± 0.39 | 0.264 ± 0.28 | 0.104 ± 0.24 | 0.00425 ± 0.18 | -0.016 ± 0.23 | 0.00789 ± 0.14 | 0.113 ± 0.16 | 0.0613 ± 0.087 | 0.00584 ± 0.11 | 0.0317 ± 0.07
CC[C@@H]1C(=O)N(C)c2cnc(Nc3ccc(C(=O)NC4CCN(C)CC4)cc3OC)nc2N1C1CCCC1 | 0.029 ± 0.18 | -0.534 ± 0.39 | -0.511 ± 0.49 | -1.03 ± 0.64 | -0.22 ± 0.087 | -0.296 ± 0.064 | -0.301 ± 0.028 | -0.223 ± 0.055 | -0.104 ± 0.061 | -0.129 ± 0.1 | -0.134 ± 0.068 | -0.109 ± 0.064
CNC(=O)c1ccc(N2C(=S)N(c3ccc(C#N)c(C(F)(F)F)c3)C(=O)C2(C)C)cc1F [Enzalutamide (MDV3100)] | 0.195 ± 0.29 | 0.256 ± 0.25 | 0.0759 ± 0.26 | 0.146 ± 0.47 | 0.153 ± 0.053 | 0.342 ± 0.43 | 0.0633 ± 0.033 | 0.0109 ± 0.3 | 0.162 ± 0.071 | 0.166 ± 0.17 | 0.0241 ± 0.038 | 0.0942 ± 0.19
CC1=C(C(=O)OC2CCCCC2)C(c2ccc([N+](=O)[O-])cc2)C2=C(CC(C)(C)CC2=O)N1 (stereo unspecified) | 0.0892 ± 0.23 | 0.0945 ± 0.24 | 0.0761 ± 0.21 | -0.343 ± 0.63 | 0.144 ± 0.02 | 0.00359 ± 0.0067 | -0.107 ± 0.14 | -0.235 ± 0.1 | 0.0505 ± 0.11 | -0.0264 ± 0.011 | -0.0535 ± 0.044 | -0.14 ± 0.064
